# The list shows a part of the results.
# B1: CFEM-SCL (Saccharomyces cerevisiae), O13547 (protein)
# chain: MRATTLLSSVVSLALLSKEVLATPPACLLACVAQVGKSSSTCDSLNQVTCYCEHENSAVKKCLDSICPNNDADAAYSAFKSSCSEQNASLGD
# What was measured:
# Assay in all cases: glycan array binding signal (z-score within array); higher = stronger binding
# Conditions in all cases: glycan notation: IUPAC condensed, linker removed
# [1] = molecular target: Neu5Ac(a2-6)Gal(b1-4)GlcNAc(b1-6)[Gal(b1-3)GlcNAc(b1-3)]Gal(b1-4)Glc
# Method in brief: (§1)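 Glycan array data were curated from 3228 arrays in the Consortium for Functional Glycomics database and kept only where the protein sequence was available. Glycan names were converted to IUPAC-condensed notation, and columns mapping to the same glycan were averaged. The binding signal is a within-array Z-score, averaged across arrays of the same protein sequence at different concentrations or buffers and across linkers. Negative Z-scores can be read as non-binding.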
# [2] = molecular target: Neu5Ac(a2-6)Gal(b1-4)GlcNAc(b1-6)[Gal(b1-3)]GalNAc
# Method in brief: as §1
# [3] = molecular target: Neu5Ac(a2-6)Gal(b1-4)GlcNAc6S
# Method in brief: as §1
# Neu5Ac(a2-6)GalNAc = molecular target: Neu5Ac(a2-6)GalNAc
# Method in brief: as §1
# [4] = molecular target: Neu5Ac(a2-6)GalNAc(b1-4)GlcNAc
# Method in brief: as §1
# [5] = molecular target: Neu5Ac(a2-6)GalNAc(b1-4)GlcNAc6S
# Method in brief: as §1
# [6] = molecular target: Neu5Ac(a2-6)GlcNAc(b1-4)GlcNAc
# Method in brief: as §1
# [7] = molecular target: Neu5Ac(a2-6)GlcNAc(b1-4)GlcNAc(b1-4)GlcNAc
# Method in brief: as §1
# Neu5Ac(a2-8)Neu5Ac = molecular target: Neu5Ac(a2-8)Neu5Ac
# Method in brief: as §1
# [8] = molecular target: Neu5Ac(a2-8)Neu5Ac(a2-3)Gal(b1-3)GalNAc(b1-4)[Neu5Ac(a2-3)]Gal(b1-4)Glc
# Method in brief: as §1
# [9] = molecular target: Neu5Ac(a2-8)Neu5Ac(a2-3)Gal(b1-3)GalNAc(b1-4)[Neu5Ac(a2-8)Neu5Ac(a2-3)]Gal(b1-4)Glc
# Method in brief: as §1
# [10] = molecular target: Neu5Ac(a2-8)Neu5Ac(a2-3)Gal(b1-4)Glc
# Method in brief: as §1
# [11] = molecular target: Neu5Ac(a2-8)Neu5Ac(a2-3)Gal(b1-4)GlcNAc
# Method in brief: as §1
# [12] = molecular target: Neu5Ac(a2-8)Neu5Ac(a2-3)[Gal(b1-3)GalNAc(b1-4)]Gal(b1-4)Glc
# Method in brief: as §1
# [13] = molecular target: Neu5Ac(a2-8)Neu5Ac(a2-3)[GalNAc(b1-4)]Gal(b1-4)Glc
# Method in brief: as §1
# [14] = molecular target: Neu5Ac(a2-8)Neu5Ac(a2-8)Neu5Ac
# Method in brief: as §1
# [15] = molecular target: Neu5Ac(a2-8)Neu5Ac(a2-8)Neu5Ac(a2-3)Gal(b1-4)Glc
# Method in brief: as §1
# [16] = molecular target: Neu5Ac(a2-8)Neu5Ac(a2-8)Neu5Ac(a2-3)[Gal(b1-3)GalNAc(b1-4)]Gal(b1-4)Glc
# Method in brief: as §1
# [17] = molecular target: Neu5Ac(a2-8)Neu5Ac(a2-8)Neu5Ac(a2-3)[GalNAc(b1-4)]Gal(b1-4)Glc
# Method in brief: as §1
# [18] = molecular target: Neu5Ac(a2-8)Neu5Ac(a2-8)Neu5Ac(a2-8)Neu5Ac(a2-3)[GalNAc(b1-4)]Gal(b1-4)Glc
# Method in brief: as §1
# [19] = molecular target: Neu5Ac(a2-8)Neu5Gc(a2-3)Gal(b1-4)GlcNAc
# Method in brief: as §1
# [20] = molecular target: Neu5Ac(b2-6)Gal(b1-4)GlcNAc
# Method in brief: as §1
# Neu5Ac(b2-6)GalNAc = molecular target: Neu5Ac(b2-6)GalNAc
# Method in brief: as §1
# [21] = molecular target: Neu5Ac9Ac(a2-3)Gal(b1-3)GlcNAc
# Method in brief: as §1
# [22] = molecular target: Neu5Ac9Ac(a2-3)Gal(b1-4)GlcNAc
# Method in brief: as §1
# [23] = molecular target: Neu5Ac9Ac(a2-6)Gal(b1-4)GlcNAc
# Method in brief: as §1
# [24] = molecular target: Neu5Gc(a2-3)Gal(b1-3)GlcNAc
# Method in brief: as §1
# [25] = molecular target: Neu5Gc(a2-3)Gal(b1-3)[Fuc(a1-4)]GlcNAc
# Method in brief: as §1
# Neu5Gc(a2-3)Gal(b1-4)Glc = molecular target: Neu5Gc(a2-3)Gal(b1-4)Glc
# Method in brief: as §1
# [26] = molecular target: Neu5Gc(a2-3)Gal(b1-4)GlcNAc
# Method in brief: as §1
# [27] = molecular target: Neu5Gc(a2-3)Gal(b1-4)GlcNAc(b1-3)Gal(b1-4)GlcNAc(b1-2)Man(a1-3)[Neu5Gc(a2-3)Gal(b1-4)GlcNAc(b1-3)Gal(b1-4)GlcNAc(b1-2)Man(a1-6)]Man(b1-4)GlcNAc(b1-4)GlcNAc
# Method in brief: as §1
# [28] = molecular target: Neu5Gc(a2-3)Gal(b1-4)[Fuc(a1-3)]GlcNAc
# Method in brief: as §1
# [29] = molecular target: Neu5Gc(a2-6)Gal(b1-4)GlcNAc
# Method in brief: as §1
# Neu5Gc(a2-6)GalNAc = molecular target: Neu5Gc(a2-6)GalNAc
# Method in brief: as §1
# [30] = molecular target: Neu5Gc(a2-8)Neu5Ac(a2-3)Gal(b1-4)GlcNAc
# Method in brief: as §1
# [31] = molecular target: Neu5Gc(a2-8)Neu5Gc(a2-3)Gal(b1-4)GlcNAc
# Method in brief: as §1
# [32] = molecular target: Neu5Gc(a2-8)Neu5Gc(a2-3)Gal(b1-4)GlcNAc(b1-3)Gal(b1-4)GlcNAc
# Method in brief: as §1
# [33] = molecular target: Neu5Gc(a2-8)Neu5Gc(a2-6)Gal(b1-4)GlcNAc
# Method in brief: as §1
# [34] = molecular target: Neu5Gc(b2-6)Gal(b1-4)GlcNAc
# Method in brief: as §1
binder,measurement,setting,value
B1,glycan array binding signal (z-score),[1],-0.309
same,glycan array binding signal (z-score),[2],0.923
same,glycan array binding signal (z-score),[3],-0.184
same,glycan array binding signal (z-score),Neu5Ac(a2-6)GalNAc,-0.281
same,glycan array binding signal (z-score),[4],-0.277
same,glycan array binding signal (z-score),[5],-0.267
same,glycan array binding signal (z-score),[6],-0.136
same,glycan array binding signal (z-score),[7],-0.345
same,glycan array binding signal (z-score),Neu5Ac(a2-8)Neu5Ac,-0.237
same,glycan array binding signal (z-score),[8],-0.287
same,glycan array binding signal (z-score),[9],-0.147
same,glycan array binding signal (z-score),[10],-0.334
same,glycan array binding signal (z-score),[11],-0.255
same,glycan array binding signal (z-score),[12],0.641
same,glycan array binding signal (z-score),[13],-0.285
same,glycan array binding signal (z-score),[14],-0.286
same,glycan array binding signal (z-score),[15],-0.375
same,glycan array binding signal (z-score),[16],-0.036
same,glycan array binding signal (z-score),[17],-0.298
same,glycan array binding signal (z-score),[18],-0.274
same,glycan array binding signal (z-score),[19],-0.289
same,glycan array binding signal (z-score),[20],0.174
same,glycan array binding signal (z-score),Neu5Ac(b2-6)GalNAc,-0.169
same,glycan array binding signal (z-score),[21],-0.256
same,glycan array binding signal (z-score),[22],-0.325
same,glycan array binding signal (z-score),[23],-0.335
same,glycan array binding signal (z-score),[24],-0.298
same,glycan array binding signal (z-score),[25],-0.308
same,glycan array binding signal (z-score),Neu5Gc(a2-3)Gal(b1-4)Glc,-0.239
same,glycan array binding signal (z-score),[26],-0.323
same,glycan array binding signal (z-score),[27],-0.291
same,glycan array binding signal (z-score),[28],-0.154
same,glycan array binding signal (z-score),[29],0.075
same,glycan array binding signal (z-score),Neu5Gc(a2-6)GalNAc,-0.244
same,glycan array binding signal (z-score),[30],-0.131
same,glycan array binding signal (z-score),[31],-0.135
same,glycan array binding signal (z-score),[32],-0.293
same,glycan array binding signal (z-score),[33],-0.308
same,glycan array binding signal (z-score),[34],-0.202
